Some of the results follow.
Legend:
Assay in all cases: glycan array binding signal (z-score within array); higher = stronger binding
Conditions in all cases: glycan notation: IUPAC condensed, linker removed
[1] = molecular target: Gal(b1-4)GlcNAc(b1-2)Man(a1-3)[Gal(b1-4)GlcNAc(b1-2)Man(a1-6)][GlcNAc(b1-4)]Man(b1-4)GlcNAc(b1-4)[Fuc(a1-6)]GlcNAc
Summary of the method: (§1)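 Glycan array data were curated from 3228 arrays in the Consortium for Functional Glycomics database and kept only where the protein sequence was available. Glycan names were converted to IUPAC-condensed notation, and columns mapping to the same glycan were averaged. The binding signal is a within-array Z-score, averaged across arrays of the same protein sequence at different concentrations or buffers and across linkers. Negative Z-scores can be read as non-binding.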

[2] = molecular target: Gal(b1-4)GlcNAc(b1-2)Man(a1-3)[GlcNAc(b1-2)Man(a1-6)]Man(b1-4)GlcNAc(b1-4)GlcNAc
Summary of the method: as §1

[3] = molecular target: Gal(b1-4)GlcNAc(b1-2)Man(a1-3)[GlcNAc(b1-4)][Gal(b1-4)GlcNAc(b1-2)Man(a1-6)]Man(b1-4)GlcNAc(b1-4)GlcNAc
Summary of the method: as §1

[4] = molecular target: Gal(b1-4)GlcNAc(b1-2)Man(a1-3)[Man(a1-6)]Man(b1-4)GlcNAc(b1-4)GlcNAc
Summary of the method: as §1

[5] = molecular target: Gal(b1-4)GlcNAc(b1-2)Man(a1-6)Man(b1-4)GlcNAc(b1-4)GlcNAc
Summary of the method: as §1

[6] = molecular target: Gal(b1-4)GlcNAc(b1-2)Man(a1-6)[GlcNAc(b1-2)Man(a1-3)]Man(b1-4)GlcNAc(b1-4)GlcNAc
Summary of the method: as §1

[7] = molecular target: Gal(b1-4)GlcNAc(b1-2)Man(a1-6)[Man(a1-3)]Man(b1-4)GlcNAc(b1-4)GlcNAc
Summary of the method: as §1

[8] = molecular target: Gal(b1-4)GlcNAc(b1-2)[Gal(b1-4)GlcNAc(b1-4)]Man(a1-3)[Gal(b1-4)GlcNAc(b1-2)Man(a1-6)]Man(b1-4)GlcNAc(b1-4)GlcNAc
Summary of the method: as §1

[9] = molecular target: Gal(b1-4)GlcNAc(b1-2)[Gal(b1-4)GlcNAc(b1-4)]Man(a1-3)[Gal(b1-4)GlcNAc(b1-2)[Gal(b1-4)GlcNAc(b1-6)]Man(a1-6)]Man(b1-4)GlcNAc(b1-4)GlcNAc
Summary of the method: as §1

[10] = molecular target: Gal(b1-4)GlcNAc(b1-2)[Gal(b1-4)GlcNAc(b1-4)]Man(a1-3)[GlcNAc(b1-4)][Gal(b1-4)GlcNAc(b1-2)Man(a1-6)]Man(b1-4)GlcNAc(b1-4)GlcNAc
Summary of the method: as §1

[11] = molecular target: Gal(b1-4)GlcNAc(b1-2)[Gal(b1-4)GlcNAc(b1-4)]Man(a1-3)[GlcNAc(b1-4)][Gal(b1-4)GlcNAc(b1-2)[Gal(b1-4)GlcNAc(b1-6)]Man(a1-6)]Man(b1-4)GlcNAc(b1-4)GlcNAc
Summary of the method: as §1

[12] = molecular target: Gal(b1-4)GlcNAc(b1-2)[Gal(b1-4)GlcNAc(b1-6)]Man(a1-6)[Gal(b1-4)GlcNAc(b1-2)Man(a1-3)]Man(b1-4)GlcNAc(b1-4)GlcNAc
Summary of the method: as §1

[13] = molecular target: Gal(b1-4)GlcNAc(b1-2)[Gal(b1-4)GlcNAc(b1-6)]Man(a1-6)[Gal(b1-4)GlcNAc(b1-2)Man(a1-3)]Man(b1-4)GlcNAc(b1-4)[Fuc(a1-6)]GlcNAc
Summary of the method: as §1

[14] = molecular target: Gal(b1-4)GlcNAc(b1-2)[Gal(b1-4)GlcNAc(b1-6)]Man(a1-6)[GlcNAc(b1-4)][Gal(b1-4)GlcNAc(b1-2)Man(a1-3)]Man(b1-4)GlcNAc(b1-4)GlcNAc
Summary of the method: as §1

[15] = molecular target: Gal(b1-4)GlcNAc(b1-2)[Gal(b1-4)GlcNAc(b1-6)]Man(a1-6)[GlcNAc(b1-4)][Gal(b1-4)GlcNAc(b1-2)[Gal(b1-4)GlcNAc(b1-4)]Man(a1-3)]Man(b1-4)GlcNAc(b1-4)[Fuc(a1-6)]GlcNAc
Summary of the method: as §1

[16] = molecular target: Gal(b1-4)GlcNAc(b1-3)Gal(b1-3)GalNAc
Summary of the method: as §1

[17] = molecular target: Gal(b1-4)GlcNAc(b1-3)Gal(b1-3)GlcNAc
Summary of the method: as §1

[18] = molecular target: Gal(b1-4)GlcNAc(b1-3)Gal(b1-4)Glc
Summary of the method: as §1

B1: GSL-I (Griffonia simplicifolia) (protein)
chain: FNLPNFWSDVKDNIIFQGDANTTAGTLQLCKTNQYGNPLQYRAGRALYSDPVQLWDNKTGSVASFYTEFTFFLKITGDGPADGLAFFLAPPDSDVKDAGAYLGLFNKSTATQPSKNQVVAVEFDTWKNTDFPEPSYRHIGINVNSIVSVATKRWEDSDIFSGKIATARISYDGSAKILTVVLSYPDGADYILSHSVDLSKNLPNPIRVGISASTGANQFLTVYVLSWRFSSALQSTSVNAAMGPEIIRTVV
For B1, the “glycan array binding signal (z-score)” value [1] was -0.149, the “glycan array binding signal (z-score)” value [2] was -0.302 and the “glycan array binding signal (z-score)” value [3] was -0.194. For the same binder, the “glycan array binding signal (z-score)” value [4] was -0.159, the “glycan array binding signal (z-score)” value [5] was -0.055 and the “glycan array binding signal (z-score)” value [6] was -0.213. The “glycan array binding signal (z-score)” value [7] was -0.194, the “glycan array binding signal (z-score)” value [8] was -0.115 and the “glycan array binding signal (z-score)” value [9] was -0.161. For the same binder, the “glycan array binding signal (z-score)” value [10] was -0.304, the “glycan array binding signal (z-score)” value [11] was -0.176 and the “glycan array binding signal (z-score)” value [12] was 0.098. For the same binder, the “glycan array binding signal (z-score)” value [13] was 0.097, the “glycan array binding signal (z-score)” value [14] was -0.255 and the “glycan array binding signal (z-score)” value [15] was -0.272. For the same binder, the “glycan array binding signal (z-score)” value [16] was -0.356, the “glycan array binding signal (z-score)” value [17] was -0.161 and the “glycan array binding signal (z-score)” value [18] was -0.238.

From the supplement of paper PMC8728848
